Laboratory results taken from paper PMC9911399, “Two distinct binding modes provide the RNA-binding protein RbFox with extraordinary sequence specificity”.
Residue numbers refer to the chain shown, from its start. This is one part of the list.

T1: RBFOX1 RRM (Homo sapiens, UniProt Q9NWB1 109-208)
T1 sequence: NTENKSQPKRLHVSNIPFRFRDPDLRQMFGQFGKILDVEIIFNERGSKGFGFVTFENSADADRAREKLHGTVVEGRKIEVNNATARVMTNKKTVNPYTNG

B1: UGGGCCC (DNA:RNA)
RNA: GGGAGACCGGAAUUCAGAUUGUCCUGGGCCCUUAAAUCCCGUCGUAGCCACCA
DNA 1: CAATCTGAATTCCGGTCTCCC
DNA 2: TGGTGGCTACGACGGGATT
B2: CCCCUUU (DNA:RNA)
RNA: GGGAGACCGGAAUUCAGAUUGUCCCCCCUUUUUAAAUCCCGUCGUAGCCACCA
DNA 1: CAATCTGAATTCCGGTCTCCC
DNA 2: TGGTGGCTACGACGGGATT
B3: GCACGCU (DNA:RNA)
RNA: B2 RNA with C25G, C27A, U29G, U30C
DNA 1: CAATCTGAATTCCGGTCTCCC
DNA 2: TGGTGGCTACGACGGGATT
B4: GUGUUGA (DNA:RNA)
RNA: B2 RNA with C25G, C26U, C27G, C28U, U30G, U31A
DNA 1: CAATCTGAATTCCGGTCTCCC
DNA 2: TGGTGGCTACGACGGGATT
B5: AUCGAGC (DNA:RNA)
RNA: B1 RNA with U25A, G26U, G27C, C29A, C30G
DNA 1: CAATCTGAATTCCGGTCTCCC
DNA 2: TGGTGGCTACGACGGGATT
B6: UACCGCA (DNA:RNA)
RNA: B2 RNA with C25U, C26A, U29G, U30C, U31A
DNA 1: CAATCTGAATTCCGGTCTCCC
DNA 2: TGGTGGCTACGACGGGATT
B7: ACCGUGC (DNA:RNA)
RNA: B2 RNA with C25A, C28G, U30G, U31C
DNA 1: CAATCTGAATTCCGGTCTCCC
DNA 2: TGGTGGCTACGACGGGATT
B8: CGUAUAA (DNA:RNA)
RNA: B2 RNA with C26G, C27U, C28A, U30A, U31A
DNA 1: CAATCTGAATTCCGGTCTCCC
DNA 2: TGGTGGCTACGACGGGATT
B9: CCCUAGA (DNA:RNA)
RNA: B2 RNA with C28U, U29A, U30G, U31A
DNA 1: CAATCTGAATTCCGGTCTCCC
DNA 2: TGGTGGCTACGACGGGATT
B10: GCGCUAC (DNA:RNA)
RNA: B2 RNA with C25G, C27G, U30A, U31C
DNA 1: CAATCTGAATTCCGGTCTCCC
DNA 2: TGGTGGCTACGACGGGATT
B11: UUGCCAG (DNA:RNA)
RNA: B1 RNA with G26U, G28C, C30A, C31G
DNA 1: CAATCTGAATTCCGGTCTCCC
DNA 2: TGGTGGCTACGACGGGATT
B12: CAUACAU (DNA:RNA)
RNA: B2 RNA with C26A, C27U, C28A, U29C, U30A
DNA 1: CAATCTGAATTCCGGTCTCCC
DNA 2: TGGTGGCTACGACGGGATT
B13: UUCUGAA (DNA:RNA)
RNA: B2 RNA with C25U, C26U, C28U, U29G, U30A, U31A
DNA 1: CAATCTGAATTCCGGTCTCCC
DNA 2: TGGTGGCTACGACGGGATT
B14: ACUGCAG (DNA:RNA)
RNA: B1 RNA with U25A, G26C, G27U, C30A, C31G
DNA 1: CAATCTGAATTCCGGTCTCCC
DNA 2: TGGTGGCTACGACGGGATT
B15: UACUCGA (DNA:RNA)
RNA: B1 RNA with G26A, G27C, G28U, C30G, C31A
DNA 1: CAATCTGAATTCCGGTCTCCC
DNA 2: TGGTGGCTACGACGGGATT
B16: ACGAUGG (DNA:RNA)
RNA: B2 RNA with C25A, C27G, C28A, U30G, U31G
DNA 1: CAATCTGAATTCCGGTCTCCC
DNA 2: TGGTGGCTACGACGGGATT
B17: CUCUACG (DNA:RNA)
RNA: B2 RNA with C26U, C28U, U29A, U30C, U31G
DNA 1: CAATCTGAATTCCGGTCTCCC
DNA 2: TGGTGGCTACGACGGGATT
B18: AAAUAGU (DNA:RNA)
RNA: B2 RNA with C25A, C26A, C27A, C28U, U29A, U30G
DNA 1: CAATCTGAATTCCGGTCTCCC
DNA 2: TGGTGGCTACGACGGGATT
B19: UCACGGC (DNA:RNA)
RNA: B2 RNA with C25U, C27A, U29G, U30G, U31C
DNA 1: CAATCTGAATTCCGGTCTCCC
DNA 2: TGGTGGCTACGACGGGATT
B20: CUGCUUU (DNA:RNA)
RNA: B2 RNA with C26U, C27G
DNA 1: CAATCTGAATTCCGGTCTCCC
DNA 2: TGGTGGCTACGACGGGATT

Target: T1, RBFOX1 RRM
Assay: EMSA; HiTS-Eq, 1 nM pool, 10 min; buffer printed only for the single-RNA assays: 10 mM Tris pH 7.5, 150 mM NaCl, 3.4 mM EDTA, 0.001% NP-40, 30 C
Conditions: tags: His6 N-terminal (pET28a); label: 5' 32P
In short: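 These values rest on relative association constants, computed from read-count changes of each RNA species versus the control reaction and normalised to the cognate motif. Reads came from free RNA recovered by 8% native PAGE after purified RbFox RRM (wild type or mutant) at increasing concentrations was equilibrated for 10 min in 50 µL with 1 nM of a 5′-radiolabelled pool with 7 randomized nucleotides and DNA-annealed flanks.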

Binder | binding signal
B1 | 0.0266 KA relative to UGCAUGU
B2 | 0.000239 KA relative to UGCAUGU
B3 | 0.0317 KA relative to UGCAUGU
B4 | 0.0228 KA relative to UGCAUGU
B5 | 0.00809 KA relative to UGCAUGU
B6 | 0.0103 KA relative to UGCAUGU
B7 | 0.00919 KA relative to UGCAUGU
B8 | 0.00298 KA relative to UGCAUGU
B9 | 0.0137 KA relative to UGCAUGU
B10 | 0.0117 KA relative to UGCAUGU
B11 | 0.0178 KA relative to UGCAUGU
B12 | 0.000351 KA relative to UGCAUGU
B13 | 0.0233 KA relative to UGCAUGU
B14 | 0.0127 KA relative to UGCAUGU
B15 | 0.0112 KA relative to UGCAUGU
B16 | 0.0172 KA relative to UGCAUGU
B17 | 0.00524 KA relative to UGCAUGU
B18 | 0.00335 KA relative to UGCAUGU
B19 | 0.00943 KA relative to UGCAUGU
B20 | 0.0158 KA relative to UGCAUGU
